System: RSV A2
Conditions: 0.1 µg/mL apical, once daily Day 0 to Day 6, RSV A2 0.002 MOI, for the duration of the experiment

Q: Which “viral quantity in apical washes (plaque assay)” value does the source give for `Cc1cnc(N2CC3(CCOCC3)C2)c(C(=O)Nc2ccc(C(=O)N3CCc4cc(C(=O)Nc5c(C)cccc5F)sc4-c4ccccc43)cc2)c1` [PC786] here?
A: below detectable limits

— paper PMC11680393 (Viruses, 2024)
